Measurements reported in PubChem BioAssay AID1347043 (National Center for Advancing Translational Sciences (NCATS), 2019).
Hit rate of the full screen: of about 76,000 compounds, about 1,900 (2.5%) were called active. Inconclusive results, whose numbers are uncertain, are shown with a selection of clear calls. Calls come from the whole dose curve; as a rule, active = well fitted inhibition curve with a large enough effect; inconclusive = small, poorly fitted or top-dose-only effect; inactive = flat fitted curve, though single readings scatter. Potencies beside an inconclusive call are fits to weak or partial responses and may not hold up.

molecular target: Luciferin 4-monooxygenase (Photinus pyralis) (UniProt P08659); experiment: Firefly luciferase inhibition profiling of diverse chemical library using quantitative high-throughput screening; note: nearly all actives have a fitted effect of over 65% in size; conditions: purified P. pyralis luciferase, luminescence, biochemical; series mostly up to 115 µM
Sequence of UniProt P08659 (P08659 whole entry, looked up): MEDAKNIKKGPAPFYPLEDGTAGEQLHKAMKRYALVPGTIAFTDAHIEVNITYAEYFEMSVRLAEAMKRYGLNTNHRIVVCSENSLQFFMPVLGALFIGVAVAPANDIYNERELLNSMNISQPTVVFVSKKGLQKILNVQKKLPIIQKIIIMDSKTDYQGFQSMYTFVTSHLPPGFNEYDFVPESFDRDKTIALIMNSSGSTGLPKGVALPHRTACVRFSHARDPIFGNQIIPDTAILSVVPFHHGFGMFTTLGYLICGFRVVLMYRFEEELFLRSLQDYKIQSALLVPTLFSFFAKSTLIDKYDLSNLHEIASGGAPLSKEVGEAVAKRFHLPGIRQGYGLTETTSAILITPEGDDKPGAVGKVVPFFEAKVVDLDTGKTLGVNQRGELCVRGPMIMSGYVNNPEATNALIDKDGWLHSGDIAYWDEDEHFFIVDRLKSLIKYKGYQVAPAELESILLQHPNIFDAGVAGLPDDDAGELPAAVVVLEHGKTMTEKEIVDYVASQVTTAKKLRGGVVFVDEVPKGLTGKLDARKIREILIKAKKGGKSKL
Procedure, shortened: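 Luminescence read by CCD imaging after purified firefly luciferase (10nM final) was added to substrate buffer holding 10uM D-luciferin and 10uM ATP, pH 7.5, pre-dosed with compound.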
Potency is the fitted concentration of half-maximal effect; tags give direction and shape of the fitted curve.

SMILES | Potency
COc1cccc(-c2cc(C3CCN(C(=O)Nc4cc(Cl)ccc4C)CC3)[nH]n2)c1 | inconclusive: 44.7 µM [inhibitor, partial curve]
CCOc1ccc(NC(=O)Cn2c(C)ccc(NC(=O)Nc3ccc(C)cc3)c2=O)cc1 | inconclusive: 0.224 µM [inhibitor, full curve, poor fit]
COc1ccc(CCC(=O)N2CC[C@@H]3COCCN(Cc4ccncc4)[C@@H]3C2)cc1 | active: 39.8 µM
Cc1cn2nc(C(=O)Nc3ccc(C(=O)NCCc4cccs4)cc3)cc2c(=O)[nH]1 | active: 4.47 µM
Cc1ccc(CCNC(=O)c2ccc(Cn3ccn4nc5c(c4c3=O)CCCC5)cc2)cc1 | inactive
CCC(CC)NC(=O)c1ccc2c(c1)N(S(C)(=O)=O)CC2 | inactive
O=C(Nc1cccc(F)c1)N1Cc2[nH]cnc2C[C@H]1c1nc(-c2ccc(F)c(Cl)c2)no1 | inconclusive: 79.4 µM [inhibitor, partial curve]
CCC1Oc2ccc(NC(=O)c3ccc4c(c3)OCO4)cc2CN(Cc2ccc(F)cc2)C1=O (stereo unspecified) | inconclusive: 44.7 µM [inhibitor, partial curve, poor fit]
COc1ccc(-c2cc(-c3cnc4[nH]ccc4c3)cn3cncc23)cn1 | inconclusive: 50.1 µM [inhibitor, partial curve]
CN(C)c1nccnc1OC1CCN(C(=O)c2ccccc2Br)C1 (stereo unspecified) | inconclusive: 22.4 µM [inhibitor, full curve]
COc1ccc(-c2[nH]ncc2C(=O)N2CC[C@H](CO)[C@H](NC(=O)C3CC3)C2)cc1 | inconclusive: 44.7 µM [inhibitor, partial curve]
Cc1ccc(-c2cc3c(=O)n(CCNC(=O)c4ccccc4F)ccn3n2)c(C)c1 | active: 6.31 µM
CN(C)Cc1nnc(C2CCCN(C(=O)c3cccc(N(C)C)c3)C2)n1C (stereo unspecified) | inactive
COc1ccc(OCc2cc(C(=O)NC(C)CCO)n[nH]2)c(Cl)c1 (stereo unspecified) | inconclusive: 44.7 µM [inhibitor, full curve, poor fit]
CCN1c2cc(C(=O)Nc3ccc(SC)cc3)ccc2C(=O)N2CCCCC21 (stereo unspecified) | inconclusive: 20 µM [inhibitor, partial curve, poor fit]
COc1ccc(-n2nc(C)c([C@@H]3C=C[C@@H](NC(=O)Nc4ccccc4)C3)c2C)cc1 | inconclusive: 14.1 µM [inhibitor, full curve]
CCC(CC)C(=O)NC[C@H]1O[C@H](Cc2cc(-c3ccc(F)cc3)on2)CC[C@@H]1O | inconclusive: 70.8 µM [inhibitor, partial curve]
O=C(c1ccncc1)N1CCC2(CC1)CC(N1CCCCC1)CCO2 (stereo unspecified) | inactive
Cc1nn(C(=O)CCCC(=O)N2CCC(Cc3nncn3-c3ccccc3)CC2)c2ccccc12 | inactive
O=C(c1ccc2c(c1)CC(=O)N2Cc1ccccc1)N1CCN(C2CCCCC2)CC1 | inactive
COCc1nc(-c2ccc(OC3CCN(C(=O)Cc4c[nH]c5ccccc45)C3)cc2)no1 (stereo unspecified) | inactive
CC(C)c1noc(-c2cn(C3CCN(C(=O)Cc4ccc(Cl)cc4)C3)nn2)n1 (stereo unspecified) | inactive
CSc1cccc(NC(=O)c2ccc3c(c2)N(C)C2CCCN2C3=O)c1 (stereo unspecified) | active: 14.1 µM

SMILES | Potency
COc1ccccc1OCCNC(=O)c1ccc2c(c1)C(O)CCCCCN2C (stereo unspecified) | inactive
CCCNC(=O)N1CCC(c2noc(COc3ccc(C)cc3)n2)CC1 | inactive
Cc1ccc(-c2nc3cnccn3c2NCCC(=O)O)cc1 | inconclusive: 39.8 µM [inhibitor, partial curve]
O=C(CCc1cc(Cl)no1)N1CCc2nc3cc(-c4ccccc4)[nH]n3c(=O)c2C1 | inconclusive: 44.7 µM [inhibitor, partial curve]
O=C1c2cnc(-c3ccc(O)c(F)c3)nc2OCCN1Cc1ccccc1 | active: 22.4 µM
Cc1ccc(-c2nnc([C@H]3CCN(Cc4ccc(CO)o4)C3)o2)cc1 | inconclusive: 39.8 µM [inhibitor, partial curve]
COc1ccc(NC(=O)Nc2ccc(C)n(CC(=O)Nc3cccc(C)c3)c2=O)cc1 | inconclusive: 1.41 µM [inhibitor, full curve]
CC(C)Oc1ccc(CN2C(=O)C3(CCOCC3)CC2c2nnnn2C(C)(C)C)cc1 (stereo unspecified) | inactive
CC(=O)NC1(C)CCN(Cc2cccc(-c3ccc(N4CCOCC4)cc3)c2)C1 (stereo unspecified) | active: 5.62 µM
O=C1NCCCCCCN(C(=O)c2ccoc2)[C@H]2C[C@H](c3nc(Cc4ccccc4)no3)C[C@@H]12 | inactive
COc1cccc(CN2CCc3c(cc(C(=O)Nc4ccc(F)cc4C)n3C)C2)c1 | active: 25.1 µM
COc1ccc(-c2cc(-c3ccc(OC)nc3)cn3cncc23)cc1 | inactive
O=C(CCc1cc2n(n1)CCN(C(=O)c1ccc[nH]1)C2)N1CCOCC1 | inactive
COCCOC1CCOC2(CCN(C(=O)c3sccc3C)CC2)C1 (stereo unspecified) | inactive
CS(=O)(=O)N(Cc1cccnc1)C1CN(C(=O)c2cc3ccccc3[nH]2)C1 | inconclusive: 0.316 µM [inhibitor, full curve]
COc1ccc(CC(=O)N2CCC3(CCCN(CC4CCC4)C3=O)C2)cc1 (stereo unspecified) | inconclusive: 50.1 µM [inhibitor, partial curve, poor fit]
COc1ccc(NC(=O)N[C@H]2[C@H](O)[C@@H](N(C)CCc3ccccn3)[C@@H]3OC[C@H]2O3)cc1 | inconclusive: 50.1 µM [inhibitor, partial curve]
COc1ccc(OC)c(CN2CCNc3cc(Nc4ccccc4)ncc3C2)c1 | active: 22.4 µM
COc1ccc(C(=O)Nc2cccc(-c3nnc4n3CCCC4)c2)cc1 | inconclusive: 44.7 µM [inhibitor, partial curve]
COCC(=O)NCc1cc2n(n1)CCCN(Cc1ccc3nsnc3c1)C2 | inactive
Cc1nc(-c2ccc(F)cc2)n(CC(=O)Nc2ccc(C(F)(F)F)cc2)c(=O)c1CCO | inactive
CCC1(C(=O)O)CCCN(Cc2ccccc2)C1 (stereo unspecified) | inactive
c1c[nH]c(-c2nc3ccncc3[nH]2)c1 | inconclusive: 126 µM [inhibitor, partial curve]
